Assay results as given in PubChem BioAssay AID588591 (National Center for Advancing Translational Sciences (NCATS), 2011).
The campaign covered roughly 390,000 compounds. About 4,700 (1.2%) were called active. This list was built around the results that the source calls inconclusive (neither active nor inactive); the mix of calls is not that of the screen. The call rests on the fitted dose curve; in most records, active means well fitted inhibition curve with a large enough effect; inconclusive means small, poorly fitted or top-dose-only effect, or another doubt; inactive means no such curve, though single readings can be large or run the other way. Where the call is inconclusive, the potency comes from a doubtful curve fit.

target: DNA polymerase eta (Homo sapiens) (UniProt Q9Y253); assay: qHTS for Inhibitors of Polymerase Eta; details: recombinant Pol eta, fluorescent DNA replication assay; series mostly up to 114 µM; activity change, negative = inhibition: at the top concentration
In short: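 Fluorescent replication assay: 50 nM final substrate added after a 15 min room-temperature compound preincubation with 10 nM enzyme. Signal taken at 0 min and again at 10 min.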
On the % scale 0 is the no-effect control and ±100 the full control effect; potency means the concentration at half of the fitted maximal effect; tags describe the fitted curve by direction and shape.

Sequence of UniProt Q9Y253 (Q9Y253 whole entry, looked up): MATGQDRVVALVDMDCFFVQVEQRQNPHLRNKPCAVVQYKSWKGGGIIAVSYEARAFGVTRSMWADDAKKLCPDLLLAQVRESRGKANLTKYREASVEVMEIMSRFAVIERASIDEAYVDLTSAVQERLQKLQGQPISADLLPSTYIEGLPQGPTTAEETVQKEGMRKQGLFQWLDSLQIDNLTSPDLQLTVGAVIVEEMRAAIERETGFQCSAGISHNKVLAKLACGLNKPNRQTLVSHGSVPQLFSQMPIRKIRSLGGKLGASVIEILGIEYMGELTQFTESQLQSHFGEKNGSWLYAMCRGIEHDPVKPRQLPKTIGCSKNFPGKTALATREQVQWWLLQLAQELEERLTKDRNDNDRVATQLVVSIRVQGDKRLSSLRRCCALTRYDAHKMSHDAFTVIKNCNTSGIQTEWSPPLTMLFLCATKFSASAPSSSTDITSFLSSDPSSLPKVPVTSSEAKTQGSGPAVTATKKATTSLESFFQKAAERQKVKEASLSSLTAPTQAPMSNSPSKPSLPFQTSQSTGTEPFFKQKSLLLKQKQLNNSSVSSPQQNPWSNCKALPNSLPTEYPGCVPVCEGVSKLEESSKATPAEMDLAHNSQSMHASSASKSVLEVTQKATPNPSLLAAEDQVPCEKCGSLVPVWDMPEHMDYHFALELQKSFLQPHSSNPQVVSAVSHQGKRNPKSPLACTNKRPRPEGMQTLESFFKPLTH

Row | SMILES | Potency | activity change, negative = inhibition
1 | COc1ccc(Cl)cc1NC(=O)CSc1nnc2[nH]c(=O)cc(-c3ccccc3)n12 | active: 89.1 µM | –
2 | Cc1cc(NC(=O)COC(=O)C2CSC3(C)CCC(=O)N23)ccc1Br (configuration not stated) | inconclusive: 35.5 µM [inhibitor, partial curve, poor fit] | –
3 | COc1ccc(N(C)S(=O)(=O)c2c(C)[nH]c(=O)[nH]c2=O)cc1 | – | inactive: -5%
4 | Cc1c(C(=O)N2CCN(C)CC2)oc2ccc(Br)cc12 | – | inactive: -6.2%
5 | CCn1c(SCC(=O)Nc2ccc(C)c(C)c2)nnc1-c1nonc1NC(C)=O | – | inactive: -5.32%
6 | COc1ccc(/C=N/NC(=O)c2cc(O)c(O)c(O)c2)cc1Cn1cc([N+](=O)[O-])cn1 | active: 2.82 µM | –
7 | CCOc1ccccc1NC(=O)Cc1cccs1 | active: 44.7 µM | –
8 | COc1ccc(CCNC(=O)CN2C(=O)COc3ccc(S(=O)(=O)N4CCCCCC4)cc32)cc1OC | – | inactive: -8.89%
9 | CCOC(=O)Cc1nnc(NC(=O)CSc2nnc3c(n2)[nH]c2ccccc23)s1 | active: 20 µM | –
10 | COc1cc(-c2nnc(SCC(=O)Nc3cccc(C#N)c3)o2)cc(OC)c1OC | – | inactive: 4.54%
11 | COc1ccc(/C=C2\CCC(C3CCCC3)C2=O)cc1Cn1cccn1 (configuration not stated) | inconclusive: 70.8 µM [inhibitor, single point] | –
12 | Cc1ccc(-c2cc(C(=O)NCCCn3ccnc3)c3cc(Br)ccc3n2)o1 | inconclusive: 22.4 µM [inhibitor, single point] | –
13 | Cc1cc(C)nc(SCC(=O)NNS(=O)(=O)c2ccc(C#N)cc2)n1 | active: 12.6 µM | –
14 | COc1ccc(CC(=O)Nc2sc3c(c2C(=O)Nc2ccc(C)cc2)CCCCC3)cc1 | inconclusive: 56.2 µM [inhibitor, partial curve, poor fit] | –
15 | COc1ccc(-c2nc3ccccc3c(C(=O)Nc3ccc(S(=O)(=O)Nc4cc(C)on4)cc3)c2C)cc1 | inconclusive: 17.8 µM [inhibitor, full curve] | –
16 | COc1ccc2c(c1)CCc1c-2nc2ccccc2c1N1CCOCC1 | – | inactive: -8.82%
17 | Cc1cccc(NC(=O)c2nc[nH]c2C(=O)N[C@@H](C)C(=O)OC(C)(C)C)c1 | inconclusive: 12.6 µM [inhibitor, partial curve, poor fit] | –
18 | C[C@H](CO)N1C[C@H](C)[C@@H](CN(C)Cc2ccccc2)Oc2c(NC(=O)C3CCCCC3)cccc2C1=O | inconclusive: 56.2 µM [inhibitor, partial curve, poor fit] | –
19 | CCOC(=O)c1ccc(N=C2SC(C(=O)Nc3ccc(C(=O)O)cc3)CC(=O)N2Cc2cccs2)cc1 (configuration not stated) | inconclusive: 100 µM [inhibitor, partial curve, poor fit] | –
20 | Cc1ccc(CCC(=O)Nc2ccc(S(N)(=O)=O)cc2)o1 | active: 14.1 µM | –
21 | N#Cc1c(-c2cccs2)nc(SCc2ccc(Cl)cc2)[nH]c1=O | active: 89.1 µM | –
22 | O=C(COC(=O)c1nc(Cl)ccc1Cl)Nc1ncc(Cl)cc1Cl | inconclusive: 35.5 µM [inhibitor, partial curve, poor fit] | –
23 | CCc1nc(SCC(=O)Nc2nccs2)c2oc3ccccc3c2n1 | inconclusive: 11.2 µM [inhibitor, full curve] | –
24 | CCn1c(SCC(=O)NC(=O)NCc2ccco2)nc2sc(C)c(C)c2c1=O | inconclusive: 11.2 µM [inhibitor, full curve, poor fit] | –

Row | SMILES | Potency | activity change, negative = inhibition
25 | Cc1cccc2sc(NC(=O)c3ccc(NS(=O)(=O)c4cccs4)cc3)nc12 | inconclusive: 17.8 µM [inhibitor, full curve] | –
26 | CCCCCC(=O)Cc1cc(O)cc2c1C(=O)Oc1cc(O)c(C(=O)O)c(CCCCC)c1O2 | active: 17.8 µM | –
27 | COc1cccc(NC(=O)CN(C)CC(=O)Nc2ccc(Cl)cc2[N+](=O)[O-])c1 | inconclusive: 89.1 µM [inhibitor, partial curve, poor fit] | –
28 | O=C(COc1ccc(Br)cc1Br)NC(=O)NC1CCCC1 | inconclusive: 89.1 µM [inhibitor, partial curve, poor fit] | –
29 | CC(=O)c1ccc(NC(=O)CN2C(=O)CCc3cc(S(=O)(=O)N4CCC(C)CC4)ccc32)cc1 | active: 25.1 µM | –
30 | Cc1cc(C)cc(NS(=O)(=O)c2ccc3[nH]cc(C(=O)NCc4ccco4)c(=O)c3c2)c1 | inconclusive: 39.8 µM [inhibitor, partial curve, poor fit] | –
31 | Cc1nc2ccc(NC(=O)c3cccc(S(=O)(=O)N4CC(C)OC(C)C4)c3)cc2s1 (configuration not stated) | inconclusive: 12.6 µM [inhibitor, partial curve, poor fit] | –
32 | CSc1nnc2c(n1)OC(c1cccc(O)c1Cl)Nc1ccccc1-2 (configuration not stated) | – | inactive: -3.88%
33 | Cc1cc(C)c(NC(=O)c2cc3c(nc4sccn43)s2)c(C)c1 | inconclusive: 17.8 µM [inhibitor, single point] | –
34 | CCC(C)(C)C1CCC(NC(=O)c2ccc(S(=O)(=O)N3CCOCC3)cc2)CC1 (configuration not stated) | inconclusive: 70.8 µM [inhibitor, partial curve, poor fit] | –
35 | CCOc1ccccc1N(CC)C(=O)c1cc2c(=O)n(CC)c3ccccc3c2s1 | – | inactive: -17.6%
36 | CCc1ccc(CNC(=O)c2sc3ncnc(N(C)C4CCCCC4)c3c2C)cc1 | – | inactive: -18%
37 | CCC(=O)N1c2ccc(S(=O)(=O)NCc3ccco3)cc2CC1C (configuration not stated) | active: 56.2 µM | –
38 | COc1ccc(-c2cc(-c3cccs3)c(C#N)c(SCC(=O)NCc3ccco3)n2)cc1 | – | inactive: 10%
39 | COc1ccc(NC(C)=O)cc1S(=O)(=O)N1CCN(Cc2cccs2)CC1 | active: 25.1 µM | –
40 | CCOC(=O)C1CCN(C(c2cccnc2)c2c(NC(=O)c3ccco3)sc(C)c2C)CC1 (configuration not stated) | inconclusive: 56.2 µM [inhibitor, partial curve, poor fit] | –
41 | Cc1ccc(NC(=O)/C=C\C(=O)O)c([N+](=O)[O-])c1 | – | inactive: -7.06%
42 | Cc1c(Cl)cccc1NC(=O)CCC(=O)c1cccs1 | inconclusive: 15.8 µM [inhibitor, partial curve] | –
43 | Cc1c(C(=O)NCc2ccccc2)oc2c1-c1[nH]ncc1CC2 | – | inactive: -5.34%
44 | O=C(Nc1ccc(N2CCCCC2)cc1)c1ccc([N+](=O)[O-])o1 | active: 50.1 µM | –
45 | Cc1cc(/C=C2\SC(=S)NC2=O)c(C)n1-c1cccc(O)c1 | active: 35.5 µM | –
46 | O=S(=O)(c1ccc(NC(=S)NN=C2CCCCC2)cc1)N1CCOCC1 | – | inactive: 1.07%
47 | O=S(=O)(/N=C(/Nc1cccc2ccccc12)c1ccccc1)c1ccc(Br)cc1 | inconclusive: 44.7 µM [inhibitor, partial curve, poor fit] | –
48 | CN1C(=O)c2ccccc2N(C)C1c1ccc2c(c1)OCO2 (configuration not stated) | – | inactive: -5.75%

Row | SMILES | Potency | activity change, negative = inhibition
49 | O=C(N/N=C/C=C\c1ccco1)c1cccs1 | inconclusive: 89.1 µM [inhibitor, partial curve, poor fit] | –
50 | Cc1nc2sc3c(c2c2nnc(SCC(=O)NCc4ccco4)n12)CCCC3 | inconclusive: 25.1 µM [inhibitor, partial curve] | –
51 | CSc1ncc(C(=O)Nc2cccc(Cl)c2C)c(-c2ccccc2)n1 | – | inactive: -5.95%
52 | CCOC(=O)CN1C(=O)S/C(=C\c2ccc(-c3cccc(C(=O)O)c3C)o2)C1=O | inconclusive: 56.2 µM [inhibitor, partial curve] | –
53 | O=Cc1ccc(-c2cccc(C(=O)O)c2)o1 | active: 10 µM | –
54 | COc1ccc(CNC(=O)c2cnc(C)cn2)cc1 | active: 15.8 µM | –
55 | O=C1c2ccccc2S(=O)(=O)c2cc(N3CCC(C(=O)N4CCCCC4)CC3)ccc21 | inconclusive: 56.2 µM [inhibitor, partial curve, poor fit] | –
56 | CCCCCCSc1nc(O)c(C2OC(=O)c3c2ccc(OC)c3OC)c(=O)n1CC (configuration not stated) | inconclusive: 44.7 µM [inhibitor, partial curve] | –
57 | Cc1ccc2[nH]c3c(NCc4ccco4)ncnc3c2c1 | inconclusive: 5.01 µM [inhibitor, full curve, poor fit] | –
58 | COc1cc(C(=O)O)c2c(c1C)OC(=O)c1c(C)cc(O)c(C=O)c1O2 | – | inactive: 3.48%
59 | CC(C)(C)C1CCNC(=O)CC1 (configuration not stated) | – | inactive: -10.3%
60 | O=C(COC(=O)c1ccc(S(=O)(=O)NCc2ccco2)cc1)NCC1CCCCC1 | inconclusive: 79.4 µM [inhibitor, partial curve] | –
61 | COc1ccc(CSc2nnnn2-c2ccccc2)cc1 | inconclusive: 31.6 µM [inhibitor, partial curve, poor fit] | –
62 | O=C(CCN1C(=O)/C(=C\c2ccco2)SC1=S)Nc1ccc(C(=O)O)c(O)c1 | active: 8.91 µM | –
63 | Cc1ccsc1C(=O)N1CCN(C(=O)c2ccco2)CC1 | inconclusive: 100 µM [inhibitor, single point] | –
64 | COc1ccc(Nc2c3c(nc4ccccc24)CCC3)cc1 | – | inactive: -3.43%
65 | O=[N+]([O-])c1cnc(Sc2ccncn2)s1 | – | inactive: 3.8%
66 | COc1ccc(-c2ccc3c(c2)S(=O)(=O)c2cccc(C(=O)NCc4cc(C)oc4C(F)(F)F)c2C3=O)cc1OC | active: 11.2 µM | –
67 | S=C(NNC(=S)Nc1ccccc1)Nc1ccccc1 | – | inactive: -21.1%
68 | S=c1nc(C2CC2)[nH]c2ccccc12 | active: 25.1 µM | –
69 | CCC(=O)N1c2ccc(S(=O)(=O)N3CCN(c4ccccc4Cl)CC3)cc2CC1C (configuration not stated) | inconclusive: 79.4 µM [inhibitor, partial curve, poor fit] | –
70 | N#Cc1c(NC(=O)CSc2ncnc3sccc23)oc(-c2ccco2)c1-c1ccco1 | active: 14.1 µM | –
71 | CC(=O)c1cccc(NS(=O)(=O)c2ccc(NC(=O)N3CCCCC3)cc2)c1 | inconclusive: 44.7 µM [inhibitor, partial curve, poor fit] | –
72 | O=C(Oc1ccc2c(c1)OCO2)c1cc2c(s1)CCC2 | active: 3.98 µM | –
